Measured values published in US10383938B2 (priority 2010, dated 2019).

System: B16Ova melanoma tumor cells
Assay: Mouse prophylactic anti-tumor immunization model (Example 9)
Assay type: in vivo, C57/B1 male mice
Settings: 20 μg ovalbumin alone or + 1.0 mg/Kg Cmpd of Example 1, two boosts at two week intervals; 4E5 B16Ova cells intradermally; 11 days after tumor injection; product of major and minor diameters
Description: One week following the final boost, each mouse was injected intradermally with 4E5 B16Ova melanoma tumor cells. Mice were sacrificed 11 days following tumor injection, tumors were measured at their major and minor diameters, and the products of the two measurements were determined. The mean tumor size in mm^2+/−standard deviation (s.d.) for each group was determined.

| Molecule | Mean Tumor Size (s.d.) |
| --- | --- |
| CCCCCCCCCCCCCCCCCC(=O)NCCCCOn1c(CCCC)nc2c(N)nc3ccccc3c21 [N-(4-{[4-amino-2-butyl-1H-imidazo[4,5-c]quinolin-1-yl]oxy}butyl)octadecanamide] | 0.99 (0.81) mm^2 |
| Ovalbumin: ovalbumin antigen, 20 μg, immunization material given alone (protein, UniProt P01012 2-386, looked up) Ovalbumin: GSIGAASMEFCFDVFKELKVHHANENIFYCPIAIMSALAMVYLGAKDSTRTQINKVVRFDKLPGFGDSIEAQCGTSVNVHSSLRDILNQITKPNDVYSFSLASRLYAEERYPILPEYLQCVKELYRGGLEPINFQTAADQARELINSWVESQTNGIIRNVLQPSSVDSQTAMVLVNAIVFKGLWEKAFKDEDTQAMPFRVTEQESKPVQMMYQIGLFRVASMASEKMKILELPFASGTMSMLVLLPDEVSGLEQLESIINFEKLTEWTSSNVMEERKIKVYLPRMKMEEKYNLTSVLMAMGITDVFSSSANLSGISSAESLKISQAVHAAHAEINEAGREVVGSAEAGVDAASVSEEFRADHPFLFCIKHIATNAVLFFGRCVSP | 10.18 (8.95) mm^2 |
